Laboratory results reported in a collection of fitness landscapes (doi:10.1016/j.celrep.2020.107928).
In all, about 81,000 sequences were measured (“one-hybrid fitness for binding NBS DNA”: median about -0.1, highest 2% from about 0.36 on). Some of the results follow.

B1: Caulobacter ParB omega fusion; a variant is named by its letters at X, in order, B8GW30 (parent)
chain: MESVVVGEPGMSEGRRGLGRGLSALLGEVDAAPAQAPGEQLGGSREAPIEILQRNPDQPRRTFREEDLEDLSNSIREKGVLQPILVRPSPDTAGEYQIVAGERAWRAAQRAGLKTVPIMVRELDDLAVLEIGIIENVQRADLNVLEEALSYKVLMEKFERTQENIAQTIGKSXSHVANXMRLLXLPDEVQSYLVSGELTAXHARAIAAAADPVALAKQIIEGGLSVRETEALARKAPNLSAGKSKGGRPPRVKDTDTQALESDLSSVLGLDVSIDHRGSTGTLTITYATLEQLDDLCNRLTRGI

Variants of: B1
Assay: one-hybrid fitness for binding NBS DNA (the Noc-binding site; scaled: cognate 1, non-cognate 0); higher = stronger binding
Conditions: with NBS DNA site
Procedure, shortened: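 Caulobacter ParB libraries with four specificity codons randomised were screened by bacterial one-hybrid selection in the E. coli USO strain, using a HIS3 reporter whose site lies 19 bp from the promoter. Selection ran for 48 hours at 37°C on M9 lacking histidine, with 0.1 mM IPTG and 5 mM 3-AT. Plasmids were Illumina-sequenced before and after selection, three replicate libraries were pooled, and variants with under 10 reads were dropped. Fitness is the log change in each variant's read ratio to wild type, rescaled against the cognate and non-cognate sites.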

Variant	one-hybrid fitness for binding NBS DNA
RNVE	≤ 0.2
ESVG	≤ 0.2
NHSM	≤ 0.2
QCYA	0.328
TRQV	≤ 0.2
DNGV	≤ 0.2
TREI	≤ 0.2
RQMF	≤ 0.2
AYRL	≤ 0.2
LVLG	≤ 0.2
PFVS	≤ 0.2
VEET	≤ 0.2
LLVE	≤ 0.2
SFSW	≤ 0.2
DMQR	≤ 0.2
ENHM	≤ 0.2
LRHN	≤ 0.2
PHLV	≤ 0.2
IRRL	≤ 0.2
PQKH	≤ 0.2
LQLC	≤ 0.2
IIPG	≤ 0.2
SPPW	≤ 0.2
EIVS	≤ 0.2
RRHQ	0.293

Variant	one-hybrid fitness for binding NBS DNA
ENNG	≤ 0.2
RPSG	≤ 0.2
LPTH	≤ 0.2
FRVV	≤ 0.2
NSST	≤ 0.2
RWRD	≤ 0.2
QCDL	≤ 0.2
LGVF	≤ 0.2
MQMT	≤ 0.2
ASNT	≤ 0.2
VPPN	≤ 0.2
LWHS	≤ 0.2
DTRA	≤ 0.2
AIED	≤ 0.2
SDIF	≤ 0.2
WSHC	≤ 0.2
IWPG	≤ 0.2
KVCI	≤ 0.2
YCRT	≤ 0.2
CTQC	≤ 0.2
RQVA	≤ 0.2
CKVC	≤ 0.2
NEGT	≤ 0.2
WLNL	≤ 0.2
PFAI	≤ 0.2

Variant	one-hybrid fitness for binding NBS DNA
LEAI	≤ 0.2
MYHC	≤ 0.2
GPNN	≤ 0.2
TTAY	≤ 0.2
DINT	≤ 0.2
LGVH	≤ 0.2
GMMA	≤ 0.2
TEGK	≤ 0.2
WCWG	≤ 0.2
RKAH	0.322
PVAI	≤ 0.2
PIDT	≤ 0.2
RIHP	≤ 0.2
HSHC	≤ 0.2
IHRV	≤ 0.2
HNSW	≤ 0.2
GAYT	≤ 0.2
LHGG	≤ 0.2
MCRA	≤ 0.2
IINR	≤ 0.2
WLTC	≤ 0.2
YQHG	≤ 0.2
VLVP	≤ 0.2
RRNK	0.274
YRRE	≤ 0.2

Variant	one-hybrid fitness for binding NBS DNA
EANG	≤ 0.2
WLVR	≤ 0.2
TTSP	≤ 0.2
RNKR	0.535
FHLT	≤ 0.2
MSHT	≤ 0.2
RHQE	≤ 0.2
TWSD	≤ 0.2
VYWW	≤ 0.2
CTKT	≤ 0.2
PYEC	≤ 0.2
SFNS	≤ 0.2
EMEE	≤ 0.2
VAAG	≤ 0.2
PLQA	≤ 0.2
MACW	≤ 0.2
VKES	≤ 0.2
PSDV	≤ 0.2
LKRA	≤ 0.2
QCYS	0.432
RFHE	≤ 0.2
DVWA	≤ 0.2
YGVV	≤ 0.2
LKPK	≤ 0.2
TYMS	≤ 0.2

Variant	one-hybrid fitness for binding NBS DNA
LQIP	≤ 0.2
GTKH	≤ 0.2
PMGT	≤ 0.2
HSMA	≤ 0.2
MLSA	≤ 0.2
TGGG	≤ 0.2
PVNW	≤ 0.2
TGRR	≤ 0.2
LCGC	≤ 0.2
QSSG	≤ 0.2
ELPR	≤ 0.2
YERN	≤ 0.2
FTPQ	≤ 0.2
CGMV	≤ 0.2
SVNE	≤ 0.2
QTFC	≤ 0.2
GGPG	≤ 0.2
RELK	≤ 0.2
PKEQ	≤ 0.2
LPFC	≤ 0.2
PFRD	≤ 0.2
TRVC	≤ 0.2
QVPG	≤ 0.2
ACTG	≤ 0.2
PQKS	≤ 0.2

Variant	one-hybrid fitness for binding NBS DNA
DQGL	≤ 0.2
CCYF	≤ 0.2
QSPL	≤ 0.2
RFQK	≤ 0.2
SVRK	≤ 0.2
QKTC	≤ 0.2
PGIM	≤ 0.2
SPSY	≤ 0.2
RCLS	0.396
KRGP	≤ 0.2
GIDS	≤ 0.2
TRYY	≤ 0.2
HTSR	≤ 0.2
LILN	≤ 0.2
QSNC	≤ 0.2
NRIF	≤ 0.2
MRDS	≤ 0.2
NIEG	≤ 0.2
KKDT	≤ 0.2
SIYP	≤ 0.2
PTNF	≤ 0.2
PYMV	≤ 0.2
SSNM	≤ 0.2
KPNC	≤ 0.2
TDSA	≤ 0.2

Variant	one-hybrid fitness for binding NBS DNA
RQDS	≤ 0.2
QDDV	≤ 0.2
LTNL	≤ 0.2
RNII	≤ 0.2
RYSS	0.437
RKKI	0.231
TIHT	≤ 0.2
MNTT	≤ 0.2
RMCW	≤ 0.2
EFDM	≤ 0.2
NVFG	≤ 0.2
TLWV	≤ 0.2
ERGT	≤ 0.2
QLLP	≤ 0.2
QAMY	≤ 0.2
TAKC	≤ 0.2
RRCP	≤ 0.2
QMHQ	≤ 0.2
LLFR	≤ 0.2
EQHG	≤ 0.2
KETS	≤ 0.2
SSFH	≤ 0.2
HWRH	≤ 0.2
YDWR	≤ 0.2
NSHN	≤ 0.2

Variant	one-hybrid fitness for binding NBS DNA
QRAY	0.516
ELSC	≤ 0.2
NKYN	≤ 0.2
IRAS	≤ 0.2
IEPW	≤ 0.2
GDVR	≤ 0.2
QIYD	≤ 0.2
TYFS	≤ 0.2
IPTH	≤ 0.2
TLPW	≤ 0.2
DTME	≤ 0.2
YPYR	≤ 0.2
CTAG	≤ 0.2
RRFH	0.389
MLES	≤ 0.2
SSVT	≤ 0.2
NMES	≤ 0.2
DHMS	≤ 0.2
YPVP	≤ 0.2
VTLQ	≤ 0.2
